Variants at the floor of the assay are shown more often than the library holds them.
B1: TPR 5TU (parent)
chain: GGAUCUUCUCGAUCUAACAAAAAAGACAAAUCUGCCACAAAGCUUGAGAGCAUCUUCGGAUGCAGAGGCGGCAGCCUUCGGUGGCGCGAUAGCGCCAACGUUCUCAACUAUGACACGCAAAACGCGUGCUCCGUUGAAUGGAGUUUAUCAUG

Variants of: B1
Test: polymerase ribozyme fitness, log enrichment relative to wild type (log ratio); higher = more active; in vitro selection for triplet polymerase activity
In short: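 Fitness measures genotype enrichment against wild-type enrichment on a logarithmic scale, with inverse-variance-weighted averaging of replicates. The logarithm is base 2, and genotypes were kept only with ≥10 input reads and ≥1 read per output in Illumina sequencing. The sequenced libraries came from one triplicate in vitro selection round, including frozen incubation at −7 °C, of PCR-built, transcribed mutant libraries of each subunit of a heterodimeric triplet polymerase ribozyme.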

Polymerase ribozyme fitness (log ratio), ≤ -4.2:
GGAUCUUCUCGAUCUAACAAAAAAGACAAAUCUGCCACAAAGCUUGAGACUAUCUUCGGAUGCAGAGGCGGCAGCCUUCGGUGGCGCGAUAGCGCCAACGUUCUCAACAAUGACACGCAAAACGCGUGCUCCGCUGAAUGGAGUUUAUCAUG
GGAUCUUCUCGAUCUAACAAAAAAGACAAAUCUGCCACAAAGCUUGAGACCAUAUUCGGAUGCAGAGGCGGAAGCCUUCGGUGGCGCGCUAGCGCCAUCGUUCUCAACUAUGACACGCAAUACGCGUGCUCCGUUGAAUGGAGUUUAUCAUG
GGAUCUUCUCGAUCUAACAAAAAAGACAAAUCUGCCACAAAGCUUGAGACCAUGUUCGGAUGCAGAGGCGGCAGCCUUCGGUGGAGCGAUAGCGCCCACGCUCUCAACUAUGACACGUAAAACGCGUGCUCCGUUGAAUGGAGUUUAUCAUG
GGAUCUUCUCGAUCUAACAAAAAAGACAAAUCUGCCACAAAGCUUGAGACCAUUUUCGGAUGCCGAGGCGGCAGCCUUCGGUGGCGCGAUAGCGCCAACGUUCUCAACUAUGACACGCAAAACGCGUGCUCCGUCGAAUGGAGUUUAUCAUG
GGAUCUUCUCGAUCUAACAAAAAAGACAAAUCUGCCACAAAGCUUGAGACCAUCUUGGGAUGCAGAGGCGGCAGCCUUCAGUGGCGCGAUAGCGCCAACGUUCUCAACUAUGACAUGCAAAACGCGUGCUCCGUUGAAUGGAGUUUAUCAUG
GGAUCUUCUCGAUCUAACAAAAAAGACAAAUCUGCCACAAAGCUUGAGACCAUCUUGGGAUGCAGAGGCGGCAGCCUUCGGUGGCGCGAUAGCGCCAACGUUCUCAACUAUGACACGCAAAACGCGUGCUCCGGUGAAUGGAGUUUAUCAUG
GGAUCUUCUCGAUCUAACAAAAAAGACAAAUCUGCCACAAAGCUUGAGACCAUCUUUGCAUGCAGAGGCGGCAACCUUCGGUAGCGCGAUAGCGCCAACGUUCUCAACUAUGACACGCAAAACGCGUGCUCCGGUGAAUGGAGUUUAUCAUG
GGAUCUUCUCGAUCUAACAAAAAAGACAAAUCUGCCACAAAGCUUGAGACCAUCUUCGGAUGUAGAGGCGGCAGAUUUCGGUGGCGCGAUAGCGUCAACGUUCUCAACUAUGACACGCAAAACGCGUGCUCCGUUGAAUGGAGUUUAUCAUG
GGAUCUUCUCGAUCUAACAAAAAAGACAAAUCUGCCACAAAGCUUGAGACCAUCUUCGGAUGCAGAGGCGGUAGCCUUCGGUGGCGCGAUGGCGCCAACGUUCUCAACUAUGACACGAAAAACGCGUGCUCCGUUGAAUGGUGUUUAUCAUG
GGAUCUUCUCGAUCUAACAAAAAAGACAAAUCUGCCACAAAGCUUGAGACCAUCUUCGGAUGCAGAGGCGGUAGCCUUCGGUAGCGCGAUUGCGCCAACGUUCUCAACUAUGACACGCAAAACUCGUGCUCCGUUGAAUGGAGUUAAUCAUG
GGAUCUUCUCGAUCUAACAAAAAAGACAAAUCUGCCACAAAGCUUGAGACCAUCUUCGGAUGCAGAGGCGGUAGCCUUCGGUGGCCCGAUAGCGCCAACGUUCUCAACUAUGACACGCAAAACGCGUGCUCCGUGGAAUGGAGUUUAUCAUG
GGAUCUUCUCGAUCUAACAAAAAAGACAAAUCUGCCACAAAGCUUGAGACCAUCUUCGGAUGCAGAGGCGGUAGCCUUCGGUGGCGCGAGAGCGGCAACGUUCUCAACUAUGACACGCAAAACGCGUGCUCCGUUGAAUGGAGUUUAUCAUG
GGAUCUUCUCGAUCUAACAAAAAAGACAAAUCUGCCACAAAGCUUGAGACCAUCUUCGGAUGCAGAGGCGGCAGACUUCCGUGGCGCGAUAGCGCCAACGUUCUCAACUAUGACACGCAAAACGCGUGCUCCGUUGAAUGGAGUUUAUCAUG
GGAUCUUCUCGAUCUAACAAAAAAGACAAAUCUGCCACAAAGCUUGAGACCAUCUUCGGAUGCAGAGGCGGCAGUCUUCGGUGGUGCGAUAGCGCCAACGUUCGCAACUAUGACACGCAAAACGCGUGCUCCGUUGAAUGGAGUUUAUCAAG
GGAUCUUCUCGAUCUAACAAAAAAGACAAAUCUGCCACAAAGCUUGAGACCAUCUUCGGAUGCAGAGGCGGCAGUCUUCGGUGUCGCGAUAGCGCCAACGGUCUCAACUAUGACACGCAAAACGCGUGCUCCGUUGAAUGGAGUUUAUCAUG
GGAUCUUCUCGAUCUAACAAAAAAGACAAAUCUGCCACAAAGCUUGAGACCAUCUUCGGAUGCAGAGGCGGCAGCAUUCGGUGGUGCGAUGGCGCCAACGUUCUCAACUAUGACACGCAAAACGCGUGCUCCGUUGAAUGGAGUUGAUCAUG
GGAUCUUCUCGAUCUAACAAAAAAGACAAAUCUGCCACAAAGCUUGAGACCAUCUUCGGAUGCAGAGGCGGCAGCAUUCGGUGGCGCGAUAGCGCAAACGUUCUCAACUAUGACACGCAAAACGCGUGCUCUGUUGAAUUGAGUUUAUCAAG
GGAUCUUCUCGAUCUAACAAAAAAGACAAAUCUGCCACAAAGCUUGAGACCAUCUUCGGAUGCAGAGGCGGCAGCAUUCGGUGGCACGAUAGCGCCGAUGUUCUCAACUAUGACACGCAAAACGCGUGCUCCGUUGAAUGGAGUUUAUCGUG

Polymerase ribozyme fitness (log ratio), -3.48:
GGAUCUUCUCGAUCUAACAAAAAAGACAAAUCUGCCACAAAGCUUGAGACCAUUUACGUAUGCAGAGGCGGCAGCCUUCGGUGGCGCGAUAGCGCCAACGUUCUCAACUAUGACACGCAAAACGCGUGCUCCGUUGAAUGGAGUUUAUCAUG

Source: the RNAGym collection of RNA variant scans (doi:10.1073/pnas.2313332121)
